{
  "source": "paper PMC6212790",
  "note": "The other results are listed elsewhere or left out. At the low end of the ranking, values are background and their order means little.",
  "data": [
    {"target": "T1, GST-Rok (full length) (UniProt O34857)", "T1 sequence": "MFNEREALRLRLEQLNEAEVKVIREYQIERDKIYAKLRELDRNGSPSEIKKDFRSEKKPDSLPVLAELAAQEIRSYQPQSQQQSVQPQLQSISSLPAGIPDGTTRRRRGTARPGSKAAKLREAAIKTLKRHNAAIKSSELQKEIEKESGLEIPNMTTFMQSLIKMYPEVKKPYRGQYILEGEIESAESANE", "test": "protein binding microarray;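 also: rank score from −0.5 (least bound) to 0.5 (best bound)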", "details": "Rok is a gene silencer of Bacillus subtilis; high values mean tight binding; most listed sequences are background and not binding sites; double strand, one strand shown", "units": {"binding signal": "E-score"}, "values": [
      {"sequence": "CGCCATTA", "binding signal": 0.0629},
      {"sequence": "GCCTCTGA", "binding signal": -0.154},
      {"sequence": "CGAAGCTC", "binding signal": -0.296},
      {"sequence": "AATCTTAT", "binding signal": 0.194},
      {"sequence": "CTTTAGGC", "binding signal": -0.138},
      {"sequence": "AGGTCAAT", "binding signal": 0.00352},
      {"sequence": "CTCACGGA", "binding signal": -0.279},
      {"sequence": "CAGTGTTA", "binding signal": 0.0391},
      {"sequence": "AGCAAGCG", "binding signal": -0.0451},
      {"sequence": "ACCGACTG", "binding signal": -0.0242},
      {"sequence": "TACTTCGA", "binding signal": 0.332},
      {"sequence": "ATAGTGAT", "binding signal": 0.12},
      {"sequence": "AATTTCGA", "binding signal": 0.352},
      {"sequence": "CAACCTTG", "binding signal": -0.116},
      {"sequence": "AGCAGAGA", "binding signal": -0.129},
      {"sequence": "TCTGCCAA", "binding signal": -0.0949},
      {"sequence": "ATTGTAAG", "binding signal": 0.0277},
      {"sequence": "ATGTCGAG", "binding signal": -0.109},
      {"sequence": "AGTCAAAC", "binding signal": 0.0377},
      {"sequence": "CTATAAGA", "binding signal": 0.244},
      {"sequence": "AGATCCGA", "binding signal": 0.0377},
      {"sequence": "CCCGGTCC", "binding signal": -0.111},
      {"sequence": "ACGATGTA", "binding signal": 0.0899},
      {"sequence": "ACTAAGAA", "binding signal": 0.154},
      {"sequence": "CGGTAATC", "binding signal": -0.0198},
      {"sequence": "CCAATTCG", "binding signal": -0.114},
      {"sequence": "CAGTAAGC", "binding signal": -0.087},
      {"sequence": "GGGAGTGA", "binding signal": -0.219},
      {"sequence": "TTATCCAA", "binding signal": 0.0978},
      {"sequence": "AGTGAAGA", "binding signal": -0.00169},
      {"sequence": "AAATCTGC", "binding signal": 0.0491},
      {"sequence": "CAATCACG", "binding signal": -0.0935},
      {"sequence": "ATTTGCCA", "binding signal": 0.149},
      {"sequence": "GATGAACA", "binding signal": 0.143},
      {"sequence": "AGTGCGAT", "binding signal": 0.118},
      {"sequence": "AATCATAT", "binding signal": 0.129},
      {"sequence": "ATCTATAG", "binding signal": 0.313},
      {"sequence": "AGGCGAGA", "binding signal": -0.212},
      {"sequence": "CACTGATC", "binding signal": 0.0518},
      {"sequence": "GACGGTGC", "binding signal": -0.197},
      {"sequence": "GTAACTTA", "binding signal": 0.26},
      {"sequence": "CCTCGGAG", "binding signal": -0.231},
      {"sequence": "CGCAGTAG", "binding signal": 0.139},
      {"sequence": "CGCGCCCG", "binding signal": -0.262},
      {"sequence": "AAGGCTTA", "binding signal": -0.139},
      {"sequence": "ATTCCCGC", "binding signal": -0.125},
      {"sequence": "ATCTAGAT", "binding signal": 0.322},
      {"sequence": "GCGGCAGA", "binding signal": -0.075},
      {"sequence": "ACCCCTAC", "binding signal": -0.266},
      {"sequence": "ACGTTTGG", "binding signal": 0.155},
      {"sequence": "ATCCTTTA", "binding signal": -0.0018},
      {"sequence": "ATCAGTCC", "binding signal": -0.0111},
      {"sequence": "AGTGGGTA", "binding signal": 0.162},
      {"sequence": "ACAGCGCA", "binding signal": 0.0294},
      {"sequence": "AATACTAA", "binding signal": 0.37},
      {"sequence": "ACTCCTCG", "binding signal": -0.112},
      {"sequence": "TAGCAGAA", "binding signal": 0.127},
      {"sequence": "CCCCGTCC", "binding signal": -0.271},
      {"sequence": "CACTTGGA", "binding signal": -0.0489},
      {"sequence": "AAGTAACC", "binding signal": -0.115},
      {"sequence": "AGCCATAC", "binding signal": 0.0741},
      {"sequence": "GTGTAAAC", "binding signal": 0.0464},
      {"sequence": "AAATCCGG", "binding signal": 0.0146},
      {"sequence": "GGCACAGA", "binding signal": 0.00898},
      {"sequence": "CCTGTGCC", "binding signal": -0.176},
      {"sequence": "AACACCAC", "binding signal": -0.0276},
      {"sequence": "GCGAAAAC", "binding signal": 0.0869},
      {"sequence": "AATACATA", "binding signal": 0.373},
      {"sequence": "AGGACTTG", "binding signal": -0.0621},
      {"sequence": "GGATGGCA", "binding signal": -0.29},
      {"sequence": "AAATCTAA", "binding signal": 0.157},
      {"sequence": "AGATTTGA", "binding signal": 0.14},
      {"sequence": "AATTCTAA", "binding signal": 0.252},
      {"sequence": "ATAGTCAA", "binding signal": 0.175},
      {"sequence": "AATATAGT", "binding signal": 0.359},
      {"sequence": "ACATTTCC", "binding signal": 0.133},
      {"sequence": "ACACCATA", "binding signal": -0.00553},
      {"sequence": "GAGCTTAA", "binding signal": -0.161},
      {"sequence": "CTTCTGTA", "binding signal": 0.143},
      {"sequence": "GGTGTAAC", "binding signal": -0.0245},
      {"sequence": "ACTATGCA", "binding signal": 0.171},
      {"sequence": "CTTGACCA", "binding signal": -0.185},
      {"sequence": "CATACAGA", "binding signal": 0.0687},
      {"sequence": "CCTACACA", "binding signal": 0.00393},
      {"sequence": "CCATAACA", "binding signal": 0.131},
      {"sequence": "ATTTATAA", "binding signal": 0.333},
      {"sequence": "ATATCGGC", "binding signal": 0.137},
      {"sequence": "GGCAGGTA", "binding signal": -0.0441},
      {"sequence": "CAAGTACA", "binding signal": 0.165},
      {"sequence": "GGCGCAGA", "binding signal": -0.165},
      {"sequence": "CACATTAG", "binding signal": 0.11},
      {"sequence": "ATCGTTAG", "binding signal": 0.0469},
      {"sequence": "AGATAGAG", "binding signal": 0.026},
      {"sequence": "GCGGACAA", "binding signal": -0.0929}
    ]}
  ]
}
